According to PubChem BioAssay AID686979 (National Center for Advancing Translational Sciences (NCATS), 2013):
About 50,000 (12%) of roughly 420,000 compounds were called active. The shares of active, inactive and inconclusive entries below differ from those in the screen. Calls come from the whole dose curve; as a rule, active = well fitted inhibition curve with a large enough effect; inconclusive = small, poorly fitted or top-dose-only effect; inactive = flat fitted curve, though single readings scatter. No potency is given beside an inconclusive call; the fits are too rough.

Assay: qHTS for Inhibitors of human tyrosyl-DNA phosphodiesterase 1 (TDP1): qHTS in cells in presence of CPT; note: nearly all actives have a fitted effect of over 55% in size
Conditions: chicken DT40 Tdp1-/-;hTDP1 cells + 20 nM CPT, ATP luminescence, 48 h; series mostly up to 46.2 µM
Summary of the method: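 Chicken DT40 Tdp1-/- cells complemented with human TDP1, 400 cells/well, exposed to compounds plus 20 nM camptothecin for at least 48 h at 37 C; viability read as ATP content by CellTiter-Glo luminescence.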
Potency is the fitted concentration of half-maximal effect; tags give direction and shape of the fitted curve.

Row | Compound | Potency
1 | Cc1ccc(S(=O)(=O)Nc2ccc(Cl)cn2)cc1C | inactive
2 | COc1cccc(NC(=O)C2CCN(S(=O)(=O)c3ccc4c(c3)OCCO4)CC2)c1 | inconclusive [inhibitor, single point]
3 | COC(=O)C1CCN(C(=O)c2cc(-c3ccco3)nc3ccccc23)CC1 | inactive
4 | CC1CCN(c2ccc3nnc(CCC(=O)Nc4ccc(F)cc4)n3n2)CC1 | inconclusive [inhibitor, single point]
5 | COc1ccc(C)cc1NC(=O)Cc1c(C(=O)O)n(C)c2ccccc12 | inactive
6 | CCN1C(=S)N[C@@H](c2cccs2)C(C(=O)OC)=C1C | inconclusive [inhibitor, single point]
7 | CCNCCCNCCCNCCCNCC | inconclusive [inhibitor, full curve]
8 | COc1ccc(OC)c(CCNC(=O)c2cccc(NC(=O)C3=C(C)OCCS3)c2)c1 | inconclusive [inhibitor, single point]
9 | Cc1ccccc1-c1cnc(C(O)c2ccc(C(C)(C)C)cc2)[nH]1 (stereo not given) | inconclusive [inhibitor, single point]
10 | CCN(CC)S(=O)(=O)c1cccc(NC(=O)CCSc2ccc(Cl)cc2)c1 | active: 16.4 µM
11 | CN(C)CCCN(C(=O)c1cccs1)c1nc2cc3c(cc2s1)OCO3 | inactive
12 | O=[N+]([O-])c1ccc(Cl)c(/C=N/N2CCN(Cc3ccccc3)CC2)c1 | inactive
13 | CC(OC(=O)c1cccs1)C(=O)NC1CC1 (stereo not given) | inactive
14 | Cc1cccc(C)c1NC(=O)C1(C)CSCC(=O)N1CC(C)C (stereo not given) | inactive
15 | Cc1ccc(C(=O)OCC(=O)N2CCCCCC2)cc1S(=O)(=O)N1CCOCC1 | inactive
16 | COc1cc(/C=N/NC(=O)c2cc[n+]([O-])cc2)ccc1O | inactive
17 | NC(=O)c1cc([N+](=O)[O-])ccc1NCc1ccccn1 | inconclusive [inhibitor, partial curve]
18 | CC(OC(=O)c1ccc(Cl)cc1O)C(=O)NCCC1=CCCCC1 (stereo not given) | inactive
19 | COc1ccc([N+](=O)[O-])cc1NC(=O)C(C)Sc1nc(C)c(C)c(C)n1 (stereo not given) | inconclusive [inhibitor, single point]
20 | CCc1ccc(NC(=O)C/C(C)=N/NC(=O)COc2ccccc2C)cc1 | inactive
21 | COc1cc(/C=C2\CCC(C3CCCC3)C2=O)cc(OC)c1OC (stereo not given) | inconclusive [inhibitor, partial curve]
22 | CCC(C)NC(=O)CSc1nc2cc3c(cc2c(=O)n1CCCC(=O)NCc1ccc2c(c1)OCO2)OCO3 (stereo not given) | inactive
23 | COc1cc(OC)c(Nc2ncnc3onc(-c4cccc(Cl)c4)c23)cc1Cl | inactive
24 | CCCCCCCN1CCC(=O)N([C@H](CO)CC(C)C)CC1 | inconclusive [inhibitor, single point]
25 | COc1cccc(N(CC(=O)N2CCC(C)CC2)S(=O)(=O)c2ccc(C)cc2)c1 | active: 20.6 µM

Row | Compound | Potency
26 | O=C(Nc1ccc(-c2nc3cccnc3s2)cc1)c1ccc(Br)o1 | active: 11.6 µM
27 | Cc1ccc(NC(=O)c2nc[nH]c2C(=O)Nc2ccccc2F)cc1 | inconclusive [inhibitor, single point]
28 | Cc1ccc(CN(Cc2ccco2)C(=O)c2oc3c(C)c(C)ccc3c2C)cc1 | inconclusive [inhibitor, single point]
29 | COCCNC(=O)c1cc2c(Cl)nc3ccc(C)cc3c2s1 | inconclusive [inhibitor, single point]
30 | N#CC1=C(S)N(c2ccccc2)C2(CCCCC2)NC1=O | inactive
31 | N#Cc1ccc(NC(=O)CN2C(=O)NC3(CCCC3)C2=O)cc1 | inactive
32 | COc1ccc(Cl)cc1NC(=O)c1c(NCc2ccc(C)o2)sc2c1CCCC2 | inconclusive [inhibitor, single point]
33 | COc1ccc(-c2nc3cnccn3c2Nc2ccc3c(c2)OCO3)cc1 | inconclusive [inhibitor, single point]
34 | COC(=O)C[C@@H]1C[C@H]2c3cc(NS(=O)(=O)c4ccccc4)ccc3O[C@H]2[C@@H](CO)O1 | inactive
35 | Cc1[nH]c2ccccc2c1CCNC(=O)c1ccc2c(c1[N+](=O)[O-])C(=O)c1ccccc1C2=O | active: 4.61 µM
36 | Cc1cccnc1NC(=O)c1cc2ccccc2oc1=O | inactive
37 | Cc1ccccc1Nc1nc(N)nc(COC(=O)CC2CC3CCC2C3)n1 (stereo not given) | inconclusive [inhibitor, single point]
38 | CCOc1c(N2CCOCC2)c(=O)c1=O | inactive
39 | COC(=O)C1=C(COc2ccccc2)NC(=O)NC1c1ccc(Br)cc1 (stereo not given) | inconclusive [inhibitor, partial curve]
40 | CCc1ccc(NC(=O)CSc2nnc(-c3cc4occc4n3C)n2-c2ccccc2C)cc1 | inconclusive [inhibitor, single point]
41 | COc1cccc(C(O)c2nc(/C=C/c3ccc(C(F)(F)F)cc3)cs2)c1 (stereo not given) | inconclusive [inhibitor, single point]
42 | Clc1ccccc1Cc1cn2cc(-c3ccccc3)nc2s1 | inconclusive [inhibitor, single point]
43 | C[C@H](CO)N1C[C@H](C)[C@@H](CN(C)S(=O)(=O)c2ccccc2)Oc2ccc(NC(=O)CCC(F)(F)F)cc2C1=O | active: 20.6 µM
44 | CCCCNC(=O)C(CC)(ONc1ccccc1C(F)(F)F)c1ccccc1OC (stereo not given) | inconclusive [inhibitor, single point]
45 | O=C(CCC1CCCCC1)Nc1nncs1 | inactive
46 | CCCCOc1ccc(C2=NC(c3ccccc3)=Nc3ccc(OC)cc3N2)cc1 | active: 16.4 µM
47 | COc1ccc(C(=O)COC(=O)c2ccc3c(c2)OCCO3)c(OC)c1 | inactive
48 | CCOC(=O)c1cnc(SCC(=O)Nc2nnc(CC)s2)nc1N | inactive
49 | CCc1ccc(/C=N/NC(=O)c2nnn(-c3nonc3N)c2CN2CCc3ccccc32)cc1 | inconclusive [inhibitor, single point]
50 | CC(=O)Nc1ccc(N(C(=O)c2ccco2)C(C(=O)NC2CCCC2)c2ccc(N(C)C)cc2)cc1 (stereo not given) | inactive
